A lower IC50 marks a more sensitive line; a fit beyond the top or the lowest dose is shown as a bound at that dose. AUC sums up the same curve from the lowest dose to the 256-fold higher top dose; the more sensitive the line, the further below 1. A top dose marked as inferred is not printed in the source and was worked back from the curve model. For some assays here: Drugs with an entry number were screened twice under separate entries, and the two screens often disagree.
Key:
Assay in all cases: Viability of human cancer cell lines after 72 h of drug (GDSC screen)
VX-702 = compound: NC(=O)c1ccc(N(C(N)=O)c2c(F)cccc2F)nc1-c1ccc(F)cc1F [VX-702]; conditions: top dose 2 µM; top dose inferred
Experimental: (§1)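 Human cancer cell lines in 384-well plates, medium with 10% serum, drug for 72 h over a 256-fold dose range (nine 2-fold or five 4-fold steps up to the top dose). Adherent lines were fixed and stained with the nucleic acid dye Syto60, suspension lines read with resazurin; signal relative to control wells, capped at 0 and 100%. One two-parameter sigmoid per drug and line, fitted in a mixed model over all curves with the slope shared within a line.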

BIRB 0796 = compound: Cc1ccc(-n2nc(C(C)(C)C)cc2NC(=O)Nc2ccc(OCCN3CCOCC3)c3ccccc23)cc1 [BIRB 0796]; conditions: top dose 10 µM; top dose inferred
Experimental: as §1

Wee1 inhibitor 681640 = compound: O=C1NC(=O)c2c1c(-c1ccccc1Cl)cc1[nH]c3ccc(O)cc3c21 [Wee1 inhibitor 681640]; conditions: top dose 2 µM; top dose inferred
Experimental: as §1

Olaparib = compound: O=C(c1cc(Cc2n[nH]c(=O)c3ccccc23)ccc1F)N1CCN(C(=O)C2CC2)CC1 [Olaparib]
Experimental: as §1

Shikonin = compound: CC(C)=CC[C@@H](O)C1=CC(=O)c2c(O)ccc(O)c2C1=O [Shikonin]; conditions: top dose 16 µM; top dose inferred
Experimental: as §1

BMS-536924 = compound: Cc1cc(N2CCOCC2)cc2[nH]c(-c3c(NC[C@@H](O)c4cccc(Cl)c4)cc[nH]c3=O)nc12 [BMS-536924]; conditions: top dose 4 µM; screen: GDSC drug entry 1091; top dose inferred
Experimental: as §1

SB-525334 = compound: Cc1cccc(-c2[nH]c(C(C)(C)C)nc2-c2ccc3nccnc3c2)n1 [SB-525334]; conditions: top dose 20 µM; top dose inferred
Experimental: as §1

[1] = top dose 10 µM, screen: GDSC drug entry 1495
[2] = top dose 5 µM, screen: GDSC drug entry 1017, top dose inferred

Row | Cell Line | AUC (VX-702) | IC50 (VX-702) [µM] | AUC (BIRB 0796) | IC50 (BIRB 0796) [µM] | AUC (Wee1 inhibitor 681640) | IC50 (Wee1 inhibitor 681640) [µM] | AUC (Olaparib; [1]) | IC50 (Olaparib; [1]) [µM] | AUC (Shikonin) | IC50 (Shikonin) [µM] | AUC (BMS-536924) | IC50 (BMS-536924) [µM] | AUC (SB-525334) | IC50 (SB-525334) [µM] | AUC (Olaparib; [2]) | IC50 (Olaparib; [2]) [µM]
1 | MM1S (myeloma, suspension) | 0.9 | > 2 | 0.945 | > 10 | 0.98 | > 2 |  |  |  |  |  |  |  |  |  | 
2 | NCI-H522 (lung adenocarcinoma, adherent) |  |  | 0.968 | > 10 | 0.934 | > 2 | 0.969 | > 10 | 0.378 | 0.432 | 0.969 | > 4 | 0.961 | > 20 |  | 
3 | NCI-H838 (lung adenocarcinoma, adherent) | 0.987 | > 2 | 0.957 | > 10 |  |  | 0.935 | > 10 | 0.87 | > 16 | 0.81 | 2.21 | 0.986 | > 20 | 0.987 | > 5
4 | NCI-H1703 (lung adenocarcinoma, adherent) | 0.982 | > 2 |  |  | 0.956 | > 2 |  |  | 0.604 | 2.06 | 0.877 | > 4 | 0.971 | > 20 |  | 
5 | NCI-H2030 (lung adenocarcinoma, adherent) |  |  | 0.983 | > 10 | 0.835 | 1.58 |  |  | 0.422 | 0.593 | 0.827 | 2.92 | 0.972 | > 20 |  | 
6 | NCI-H2085 (lung adenocarcinoma, adherent) |  |  | 0.946 | > 10 | 0.906 | > 2 | 0.944 | > 10 | 0.321 | 0.301 | 0.976 | > 4 | 0.983 | > 20 |  | 
7 | NUGC-3 (stomach, adherent) |  |  | 0.963 | > 10 | 0.906 | > 2 | 0.871 | > 10 | 0.443 | 0.687 | 0.962 | > 4 | 0.961 | > 20 |  | 
8 | OAW-28 (ovary, adherent) |  |  | 0.954 | > 10 | 0.879 | > 2 | 0.868 | > 10 | 0.567 | 1.6 | 0.919 | > 4 | 0.855 | > 20 |  | 
9 | OAW-42 (ovary, adherent) | 0.985 | > 2 | 0.985 | > 10 |  |  | 0.9 | > 10 | 0.473 | 0.839 | 0.865 | > 4 | 0.978 | > 20 | 0.965 | > 5
10 | OVCAR-5 (ovary, adherent) | 0.982 | > 2 | 0.951 | > 10 |  |  | 0.855 | > 10 | 0.51 | 1.07 | 0.783 | 2.05 | 0.953 | > 20 | 0.976 | > 5
11 | PANC-10-05 (pancreas, adherent) |  |  | 0.973 | > 10 | 0.958 | > 2 | 0.954 | > 10 | 0.383 | 0.434 | 0.899 | > 4 | 0.977 | > 20 |  | 
12 | PC-3 (prostate, adherent) |  |  |  |  | 0.954 | > 2 |  |  | 0.515 | 1.11 | 0.975 | > 4 | 0.81 | 13.4 |  | 
13 | RERF-GC-1B (stomach, adherent) |  |  | 0.983 | > 10 | 0.969 | > 2 | 0.923 | > 10 | 0.87 | > 16 | 0.736 | 1.29 | 0.844 | 16.9 |  | 
14 | SKN-3 (head and neck, adherent) | 0.906 | > 2 | 0.978 | > 10 |  |  | 0.932 | > 10 | 0.707 | 4.32 | 0.912 | > 4 | 0.978 | > 20 | 0.887 | > 5
15 | SU-DHL-5 (B-cell lymphoma, suspension) | 0.988 | > 2 |  |  | 0.979 | > 2 | 0.702 | 1.96 | 0.161 | 0.138 | 0.804 | 1.44 | 0.829 | 8.5 | 0.883 | 3.12
16 | SW756 (cervix, adherent) | 0.984 | > 2 | 0.823 | 7.44 |  |  | 0.934 | > 10 | 0.438 | 0.656 | 0.949 | > 4 | 0.957 | > 20 | 0.984 | > 5
17 | SW900 (lung squamous cell carcinoma, adherent) |  |  | 0.982 | > 10 | 0.91 | > 2 | 0.933 | > 10 | 0.482 | 0.888 | 0.9 | > 4 | 0.944 | > 20 |  | 
18 | Saos-2 (osteosarcoma, adherent) |  |  | 0.92 | > 10 | 0.938 | > 2 | 0.925 | > 10 | 0.617 | 2.41 | 0.708 | 1.25 | 0.981 | > 20 | 0.981 | > 5
19 | TCCSUP (bladder, adherent) |  |  | 0.985 | > 10 | 0.935 | > 2 | 0.909 | > 10 | 0.397 | 0.502 | 0.948 | > 4 | 0.976 | > 20 |  | 
20 | U031 (kidney, adherent) |  |  | 0.985 | > 10 | 0.936 | > 2 | 0.725 | 2.79 | 0.416 | 0.583 | 0.943 | > 4 | 0.983 | > 20 |  | 
21 | U-266 (myeloma, semi-adherent) | 0.971 | > 2 |  |  | 0.869 | > 2 | 0.962 | > 10 |  |  | 0.922 | > 4 |  |  | 0.97 | > 5
22 | VM-CUB-1 (bladder, adherent) |  |  | 0.955 | > 10 | 0.923 | > 2 |  |  | 0.501 | 1 | 0.987 | > 4 | 0.985 | > 20 |  | 

Source: the supplement of paper PMC4967469
